Data as given in the supplement of paper PMC11417369.
The list shows a part of the results.

Each sequence was assayed on PF3D7_0420300 AP2 domain 1 (GST-tagged) (assay: gcPBM binding intensity (ln(normalized median fluorescence intensity)); higher = stronger DNA binding).
How it was run: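 Using an Agilent 4 × 180k array, primer-extended double-stranded 36-bp intergenic genomic probes and negative controls were exposed for 1 h to GST-fused P. falciparum DNA-binding domains expressed in E. coli. Binding was carried out in 1× PBS with 1% milk, 0.2 mg/ml BSA, 0.5% salmon testes DNA and 0.03% Triton X-100, and protein was detected with Alexa488 anti-GST antibody and a 488 nm scan. Binding intensity is the highest Masliner-normalised natural-log median intensity across replicate spots of either probe orientation.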

Sequence	gcPBM binding intensity (ln)
TAGGAATTTAATAAATGTACATATACATAATATATA [XGTACX_site3672]	9.11
TTGTATAGTCTGATATGTACATATATATATATATAA [XGTACX_site4307]	9.18
TTTGGGTATACACATACATGCATGTCCTTATATATA [TGCATGCA_site84]	9.39
ATATCATAAATTTATGCATGTTCTTTCTTCAACTCT [TGCATGCA_site992]	9.3
ATTATTTATTTATTTTTTTTTTTTTTCTCTTTTCCT [GTGCAC_negctrl_site656]	9.11
AGTAGGCATATTGGTTGTACAAAAAAATTATGCACC [XGTACX_site8925]	9.27
TTTTTTTTTTCTCTCGCACACATTTTTTAAAATGAG [CACACA_site2607]	9.38
ATATTTATATAGATGTGTACATAAATATAATAACAT [XGTACX_site1681]	9.4
ATATATATATATGTTTATTTATTTGAACGATTGTGG [CACACA_negctrl_site828]	9.11
GACTCTTAAAAAATTTGTACCCACATAAATAATATA [XGTACX_site4313]	9.08
TATATATCCTCTGAATGTACTTGTTTAATAATGTAG [XGTACX_site4332]	9.18
TGTGTAATATTCTGTTGTACATAACTCATAAATAAA [XGTACX_site5308]	9.08
ATAATATAATATATATGTACACATCCTTTTTGTGTA [XGTACX_site2879]	9.28
TAAAAGTAAAAAGGTAGTACCTAAATAATATATATA [XGTACX_site8399]	9.24
ATAAGATAGGCATATACACACATTTATTTACAGATA [CACACA_site5754]	9.61
GAATAAAAAATTGGCACACATAAATATATGGATATA [CACACA_site3047]	9.46
TTCAACATATTAAAAAGTACAGAATATAACATTATA [XGTACX_site1361]	9.29
TATACGTGAATGACAGTGCATTTCAAAAGTATAAAA [GTGCAC_site9887]	9.16
TATATATATATACCAACACACATACATATATATATA [CACACA_site8530]	9.68
TAAAAAATAAAAATTGCACACTAAAAAATTACGCAC [CACACA_site9129]	9.48
AAGTATAAATTAAAATGTACTTATAAAAAAAAAGAA [XGTACX_site7028]	9.35
TGTCACATAATTTATGCACACAATGATTATGCTTAA [CACACA_site2358]	9.28

Sequence	gcPBM binding intensity (ln)
TATGTATGTATGTATGCATGTGTAACACCTAAATAT [TGCATGCA_site361]	9.43
ACATATATTGTACATACACACCTATATAAATATCCT [CACACA_site7503]	9.57
CCATATTTCATTAATGAACACACAAAGAGGTATATA [CACACA_site8431]	9.4
AAAAATAAAATATATACACACATATATATATATATA [CACACA_site2943]	9.31
TTTTAAATTGGAGTGGGCAGATTGATATTATTCTTC [GTGCAC_negctrl_site191]	9.14
ACATATATATATATGTGTACATATTTATACAACAAT [XGTACX_site6660]	9.44
TTTTTAATTTTGTGGGTGCTTTCGTGTTATTATATA	9.66
TATTATAATAAACCTATACACACATAAATAAATAAA [GTGCAC_negctrl_site627]	9.73
AATGTCAGTATGCGAGGTACACGTATAAAAATTACA [XGTACX_site4109]	9.34
AGGAAATTTGTTATTGCACACAAATTTTTCTTTTTT [CACACA_site8732]	9.31
TACATAAATTAAAACACACACACACTAGAAAAAAAA [CACACA_site5278]	10.1
TTTTACTAAATATATACACACATTATACAGATATAT [CACACA_site5765]	9.56
TATCCTAATGCTACCACACACACAAAAACAAATAAT [CACACA_site2609]	9.9
AATATTTATGGGTGCACACAAACATACATATATATA [CACACA_site3395]	9.55
CCTTACTTCTTATAAAGTACCCAATGATATACATTA [XGTACX_site1554]	9.05
ATGTTGAAAGGAAAAAATAATAAAATCGATATATTA [CACACA_negctrl_site549]	9.18
AAAAAAAAGAATAGAGCATGCAAAATATATGAAATA [TGCATGCA_site933]	9.62
TTTTAATGTATATTTTGTACGTATTATTAATATTCG [XGTACX_site8453]	9.14
ATCTCTACAAAGTGCACACACGTAAAAACATATATA [CACACA_site6046]	9.58
ATTTTCCTTTAATTATGTACTTATGTAATAATAATG [XGTACX_site2612]	9.28
GTATCATAAAAGTATACACACATACATACATATGTA [CACACA_site5456]	9.49
GCACACATATAATTAAACATATATTTGTATTATTTT [GTGCAC_negctrl_site327]	9.43

Sequence	gcPBM binding intensity (ln)
TGTATGATTATGTTGTGTACGTAAAATATGAAAAAT [XGTACX_site1720]	9.45
ATTAGTGACATTATTACACACAAAAGAAAACAGAAA [CACACA_site3984]	9.85
TGAATCTATATACAGGTGCGTAAAAAATAACTTATA	9.1
CAAGAATTAAAATAAAGTACAAAAGTAACAACTTTT [XGTACX_site1474]	9.17
AAAAAAAAGGAAAAGGGTACAAAACCATACTTACAT [XGTACX_site4783]	9.43
TAAAGATATAAATGCACACGTATTAAAAAAAAAATA [CACACA_site952]	9.46
TTATCATTACATGAGTGTACATTATTATATTTTTTT [XGTACX_site7845]	9.44
ATATATTTTTTTTTTTGTACGTATATTTATATAATT [XGTACX_site8719]	9.55
GAAAGAAAGAAAGAAAGTACATATAAAAATATACAT [XGTACX_site7299]	9.11
ATGATAGTAATTAATAGTACTTTTTTTGATACAAAA [XGTACX_site4288]	8.75
TCGTGTTTTAAAAAAATGAAGAAAAGTAAAAAAAAA [XGTACX_negctrl_site23]	8.98
TAATATGAATATATATGTACATACAATTTGTTATAT [XGTACX_site5815]	9.25
ATTAAATGTATGACTTGTACATAAAATAAAAAAAAA [XGTACX_site6555]	9.12
TATATATAATATATATGTACATAATATATTTTATAT [XGTACX_site2909]	9.07
TAAAACACTCATGGCACACATAAAACATTTTTATGA [CACACA_site3574]	9.3
AGTATAAGCATTATTGTGCACATAATTATAATTTTT	9.27
AGTTTAAATTAAATTACACACTACGAATAATATATT [CACACA_site7811]	9.36
AATAATGAAACAGGAAAAAAATATTGTTAAAATGTA [XGTACX_negctrl_site400]	9.51
TATATATTAATAAATAGTACCCGTGGAATTTATATT [XGTACX_site5855]	9.19
GTTGCAATTAACACTAGTACATATAAGTAGTTTATT [XGTACX_site2063]	9.24
ATTGTTCTCCAAAAGTGTACGTATTATTTTTCTGGA [XGTACX_site1404]	9.31
TATTAATCTTTTTTTAAACAAAAAATTAAGCAAATT [CACACA_negctrl_site884]	8.72

Sequence	gcPBM binding intensity (ln)
AACTAATAAAAAAAAAGTACACAATATGTAAATAAC [XGTACX_site5263]	9.76
AAGCGAATATATATCACACACAAAAAAATCAGACTA [CACACA_site2108]	9.74
AATTATTGTGAAGGGAAAACAAAAAAGTTTATAATT [CACACA_negctrl_site1337]	9.23
AACAAATATATTAACACACAAACATATAAACCAATG [CACACA_site3970]	10
TATATATTATATATATGTACATACTTTTTACGTTCA [XGTACX_site2493]	9.3
ACCACATTTTTTTTTGCATGTTGTTTAAAAAAAGGC [TGCATGCA_site137]	9.01
AATTTTTTTCTCCAAGTGCATTAGAACATTAACGTA [GTGCAC_site9413]	8.96
ATATATTTATGTATCACACACAAAAAAAAAAAATAA [CACACA_site255]	9.54
TATAAAAAATAATTATCATGAAATATATGATCATCA [TGCATGCA_negctrl_site137]	9.19
ATTATTATTTATATGATACACACGTACATATACGCA [CACACA_site3823]	9.3
TATATTTTTTATAAATGTACATGGATAGGCATAAAC [XGTACX_site8401]	9.52
TTAAAAAAAATATAATGTACTTGTAGAATTATATTT [XGTACX_site6220]	8.95
ATATGAATAAATAAAAGTACATACATAATGTATTAT [XGTACX_site5969]	9.34
TCAAAAATGAGTTACACACACACATATATATATATA [CACACA_site2229]	9.91
AGTATATAAAATACTGTATCGATGGGGGAGGGCGCA [CACACA_negctrl_site1612]	10
ACAAATAAATAAAAAACACACACAAATAAATAAATA [CACACA_site8708]	10.1
TAATAATAAAATATTTGTACATATAAAATATGGCTG [XGTACX_site7904]	9.2
AATATAATGCAATATACACACATATATTTCTCTTTT [CACACA_site7276]	9.49
AAGGAAATAATTAAATGTACAAAAAAAAAAAAAATT [XGTACX_site562]	9.4
TACAAACAAACACATAGCAATATATGTTATCAAAAA [XGTACX_negctrl_site1]	9.37
ATATTTTTTTTTCTTTCGCACACGTGAAAGAATTTC [CACACA_site8636]	9.28
TTTTATGCTCAATTATTAAGAAATACTTTTTCTTCC [XGTACX_negctrl_site208]	8.92
